Laboratory results taken from PubChem BioAssay AID360 (National Center for Advancing Translational Sciences (NCATS), 2006).
About 550 (1.1%) of roughly 48,000 compounds were called active. The shares of active, inactive and inconclusive entries below differ from those in the screen. Cut-off read from the data, not from the text of the source: active = potency below about 15 µM; inconclusive = mostly about 16 µM to 33 µM; inactive = weaker than that. Potencies of inconclusive entries are doubtful fits and often do not repeat.

molecular target: Lysosomal acid glucosylceramidase (Homo sapiens) (UniProt P04062); experiment: Glucocerebrosidase; details: purified enzyme, resorufin glucoside fluorescence (screen aimed at inhibitors), 20 min;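 note: the screen sought inhibitors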
Chain of UniProt P04062 (P04062 whole entry, looked up): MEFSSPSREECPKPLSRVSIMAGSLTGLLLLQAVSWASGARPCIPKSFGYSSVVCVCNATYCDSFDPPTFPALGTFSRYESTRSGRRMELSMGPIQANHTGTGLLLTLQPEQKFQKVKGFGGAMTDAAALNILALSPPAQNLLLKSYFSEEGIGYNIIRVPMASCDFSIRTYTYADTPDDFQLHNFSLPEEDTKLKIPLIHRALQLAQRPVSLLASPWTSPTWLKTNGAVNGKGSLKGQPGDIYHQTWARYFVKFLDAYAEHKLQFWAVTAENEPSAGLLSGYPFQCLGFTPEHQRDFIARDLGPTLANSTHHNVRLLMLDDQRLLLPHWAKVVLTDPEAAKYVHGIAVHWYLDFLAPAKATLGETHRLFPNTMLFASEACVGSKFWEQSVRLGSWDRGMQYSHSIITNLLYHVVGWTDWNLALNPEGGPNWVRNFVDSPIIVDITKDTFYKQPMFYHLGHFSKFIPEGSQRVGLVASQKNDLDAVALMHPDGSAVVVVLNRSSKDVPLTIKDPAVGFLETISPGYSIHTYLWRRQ
Excerpt: NCGC Assay Overview: Beta-glucocerebrosidase catalyzes the hydrolysis of beta-glucocerebroside to glucose and ceramide. The inherited deficiency of beta-glucocerebrosidase results in Gaucher disease, which is characterized by a wide variety of symptoms including hepatosplenomegaly, anemia, thrombocytopenia, bony lesions and bone marrow infiltration with characteristic storage cells, known as Gaucher cells. There are also forms of the disorder affecting the central nervous system. Patients with the same genotypes can manifest with diverse clinical presentations and it is believed that improper folding and trafficking of beta-glucocerbrosidase may contribute to the phenotypes observed. Low molecular weight molecules, acting as chaperones, may potentially restore trafficking of misfolded beta-glucocerebrosidase from the endoplasmic reticulum to the lysosomes, thereby enhancing functional lysosomal beta-glucocerebrosidase activity. Using normal beta-glucocerebrosidase, an assay was developed to screen for small molecule inhibitors that could potentially act as molecular chaperones on the mutant forms [developed with NIH investigator Dr. Ellen Sidransky's laboratory]. Two pro-fluorescent substrates were chosen for two screens against a small molecule library. One beta-glucocerebrosidase assay used Resorufin beta-D-Glucopyranoside (Marker Gene Technology Inc.), generating a red fluorescent product. The second assay used Fluorescein di-beta-D-Glucopyranoside, generating a blue fluorescent product. […] The IC50 values of Conduritol B Epoxide, a known glucocerebrosidase inhibitor, were determined to be 87.5 uM and 117 uM, respectively. The use of two difference pro-fluorescent substrates in the screens helped to eliminate false positives. All compounds were screened in a titration series resulting in AC50s (e.g., IC50s or EC50s).
NCGC Assay Protocol Summary: Both enzyme and substrate were diluted in buffer composed of 50mM citric acid/KH2PO4, 10mM sodium taurocholate and 0.01% tween-20 at pH 5.9. The final concentration of the enzyme was 0.2 nM in both assays. The compound library was titrated in 7 to 15 concentrations for the primary screens with a final concentration ranging from 0.6 nM to 50 uM. This particular assay protocol is for the "red" substrate, and it was performed in 1536-well plate format as follows: Red fluorescence substrate assay: 2 uL enzyme 23 nL compound 1 uL substrate (final concentration of 30 uM) Incubate at room temperature (RT) for 20 minutes Read the plate in Viewlux plate reader (Ex=548(7) and Em=600(10)).
Potency is the fitted concentration of half-maximal effect.

Potency, inconclusive:
O=S(=O)(c1ccc(Br)cc1)N1CCN(c2cc(-c3ccccc3)nc3ncnn23)CC1 20.9 µM [decreasing]
Cc1ccc(NC(=O)CN2CCC3(O)CCCCC3C2c2ccc3c(c2)OCO3)c(C)c1 (stereo not given) 18.2 µM [decreasing]
Cc1ccc(C2C3=C(CC(C)(C)CC3=O)Nc3n[nH]c(C)c32)cc1 (stereo not given) 21.7 µM [decreasing]
O=C(c1cccs1)n1nc(-c2ccccc2)nc1NCc1ccco1 28.2 µM [increasing]
Cc1ccnc(NC(=O)c2ccc(NC(=O)c3ccco3)cc2)c1 29.2 µM [decreasing]
CC(C)Sc1oc(-c2ccco2)nc1S(=O)(=O)c1ccccc1 29.9 µM [decreasing]
O=C(CCCc1c[nH]c2ccccc12)N1CCN(S(=O)(=O)c2cccs2)CC1 20.4 µM [decreasing]
O=C(COC(=O)c1ccc(S(=O)(=O)Nc2ccccc2)cc1)NCCN1C(=O)CSC1=O 15.6 µM [decreasing]
CCC(c1nc2ccccc2c(=O)n1CCCn1ccnc1)N1C(=O)c2ccccc2C1=O (stereo not given) 28.6 µM [decreasing]
CCN(CC)S(=O)(=O)c1cccc(-c2nnc(SC(C)C(=O)NCCC3=CCCCC3)o2)c1 (stereo not given) 21.2 µM [decreasing]
Cc1cc(N2CCN(C(=O)c3ccco3)CC2)n2nc(C)c(-c3ccc(Cl)cc3)c2n1 27.3 µM [increasing]
CCCn1c(=O)[nH]c(=O)c2c1nc(-c1ccc3c(c1)OCCO3)n2CCN1CCOCC1 33.5 µM [decreasing]
CCCC(C(=O)NC1CCCCC1)N(Cc1ccco1)C(=O)CNS(=O)(=O)c1ccccc1 (stereo not given) 25.9 µM [decreasing]
O=C(NC12CC3CC(CC(C3)C1)C2)c1cncc(O)c1 26.8 µM [decreasing]
O=C(NCc1ccco1)c1cc(-c2cccc(Cl)c2)on1 31.5 µM [increasing]
O=C(CN1CCN(Cc2ccccc2Cl)C1=O)NC1CCCCCCC1 21.6 µM [decreasing]
CCn1c(O)c(C=NCCN2CCOCC2)sc1=S 20.3 µM [decreasing]
CCOC(=O)c1cccc(NC(=O)c2cccs2)c1 16.5 µM [decreasing]
CC(C)Sc1nc(N2CCOCC2)c2c(c1C#N)CC(C)(C)SC2 19.5 µM [decreasing]
N#CC1=C(SCC(=O)c2cc3ccccc3oc2=O)NC(=O)C(C#N)C12CCCC2 (stereo not given) 28.3 µM [decreasing]
CCOC(=O)c1cnc(NCc2ccccc2)nc1C 20.1 µM [increasing]
O=c1c2ccccc2n(Cc2ccc(F)cc2)c(=O)n1C1CCCC1 21.9 µM [decreasing]
COc1ccc2cc(S(=O)(=O)N3CCN(C)CC3)ccc2c1 31.6 µM [decreasing]
Cc1nc(N)sc1-c1csc(Nc2ccc(Cl)cn2)n1 23.7 µM [decreasing]
O=C(c1n[nH]c(=O)c2ccccc12)N1CCN(C2c3ccccc3-c3ccccc32)CC1 31.6 µM [decreasing]
COc1cc(OC)cc(-c2nc(-c3ccccc3OC)no2)c1 19.9 µM [increasing]
CCOC(=O)c1[nH]c2ccc(F)cc2c1NC(=O)CN1CCN(C/C=C/c2ccccc2)CC1 21.5 µM [decreasing]
CC1(C)CC(=O)c2cnc(N3CCc4ccccc4C3)nc2C1 32.8 µM [increasing]

Potency, inactive:
Cn1cc(CC(=O)N2CCN(c3ccc(Cl)cc3)CC2)c2ccccc21 > 76.9 µM
COC(=O)c1ccc2c(c1)C(=O)N(C1CCCCC1)C2=O > 76.9 µM
CCCC(=O)Nc1cc(-c2cn3cccnc3n2)ccc1OC > 76.9 µM
Cc1cc(=O)n2[nH]c(-c3ccc(F)cc3)nc2n1 > 76.9 µM
N#CC(C(=O)Nc1cccc(Cl)c1)=C1Nc2ccccc2N1 > 76.9 µM
O=C(CN1CCN(c2ccccn2)CC1)Nc1ccc2ccccc2c1 > 76.9 µM
CCCCN(C(=O)NC(=O)Nc1nc2ccc(OC)cc2s1)S(C)(=O)=O > 76.9 µM
Cc1cc(OCC(=O)N2CCOCC2)cc2oc(=O)c3ccccc3c12 > 76.9 µM
CN(c1ccccc1)C(c1ccc(F)cc1)c1nnnn1C1CCCC1 (stereo not given) > 76.9 µM
Cc1coc(C)c1C(=O)CC1(O)C(=O)N(CCc2ccccc2)c2ccccc21 (stereo not given) > 76.9 µM
CC(C)c1[nH]nc2c1C(Cc1ccccc1)C(C#N)=C(N)O2 (stereo not given) > 76.9 µM

Potency, active:
Cc1nnc(NC(=O)c2sc3ccccc3c2Cl)s1 14.7 µM
O=C(Nc1ccc(F)cc1)N(Cc1ccco1)Cc1cc2cc3c(cc2[nH]c1=O)OCO3 11.2 µM
O=C(NC1CC2CCCC(C1)N2C1CC1)NC12CC3CC(CC(C3)C1)C2 (stereo not given) 10.5 µM
CC1CCCC(NC(=O)c2ccc3c(=O)n(CC4CCCO4)c(=O)[nH]c3c2)C1C (stereo not given) 1.6 µM
Cn1cc(/C=N/n2cnc3sc4c(c3c2=O)CCCC4)c2ccccc21 11.7 µM
CCc1nnc(NC(=O)CSc2nnc(CNc3ccc(Cl)cc3)o2)s1 15.3 µM
Cn1c(=O)[nH]c(=O)c2c1nc(N1CCCCCC1)n2CCN1CCCCCC1 11.3 µM
Brc1ccc2[nH]c3nc(SCCN4CCOCC4)nnc3c2c1 9.59 µM
FC(F)Sc1ccc(Nc2ncnc3nc[nH]c23)cc1 5.34 µM
Cc1cccc(Nc2nc(N)nc(CN3CCN(c4ccc(F)cc4)CC3)n2)c1 3.29 µM
O=S(=O)(NC1CCCC1)c1ccc(S(=O)(=O)N2CCCN(Cc3ccccc3)C2)cc1 14.7 µM
